In paper PMC7350272:
Results are given in words; binding and its absence hold for the method and conditions named. Some binding calls cover weakened binding; strength is not graded here.

Protein sequences, listed by entry. Tags and fused reporters are not part of them.
UniProt F8S296: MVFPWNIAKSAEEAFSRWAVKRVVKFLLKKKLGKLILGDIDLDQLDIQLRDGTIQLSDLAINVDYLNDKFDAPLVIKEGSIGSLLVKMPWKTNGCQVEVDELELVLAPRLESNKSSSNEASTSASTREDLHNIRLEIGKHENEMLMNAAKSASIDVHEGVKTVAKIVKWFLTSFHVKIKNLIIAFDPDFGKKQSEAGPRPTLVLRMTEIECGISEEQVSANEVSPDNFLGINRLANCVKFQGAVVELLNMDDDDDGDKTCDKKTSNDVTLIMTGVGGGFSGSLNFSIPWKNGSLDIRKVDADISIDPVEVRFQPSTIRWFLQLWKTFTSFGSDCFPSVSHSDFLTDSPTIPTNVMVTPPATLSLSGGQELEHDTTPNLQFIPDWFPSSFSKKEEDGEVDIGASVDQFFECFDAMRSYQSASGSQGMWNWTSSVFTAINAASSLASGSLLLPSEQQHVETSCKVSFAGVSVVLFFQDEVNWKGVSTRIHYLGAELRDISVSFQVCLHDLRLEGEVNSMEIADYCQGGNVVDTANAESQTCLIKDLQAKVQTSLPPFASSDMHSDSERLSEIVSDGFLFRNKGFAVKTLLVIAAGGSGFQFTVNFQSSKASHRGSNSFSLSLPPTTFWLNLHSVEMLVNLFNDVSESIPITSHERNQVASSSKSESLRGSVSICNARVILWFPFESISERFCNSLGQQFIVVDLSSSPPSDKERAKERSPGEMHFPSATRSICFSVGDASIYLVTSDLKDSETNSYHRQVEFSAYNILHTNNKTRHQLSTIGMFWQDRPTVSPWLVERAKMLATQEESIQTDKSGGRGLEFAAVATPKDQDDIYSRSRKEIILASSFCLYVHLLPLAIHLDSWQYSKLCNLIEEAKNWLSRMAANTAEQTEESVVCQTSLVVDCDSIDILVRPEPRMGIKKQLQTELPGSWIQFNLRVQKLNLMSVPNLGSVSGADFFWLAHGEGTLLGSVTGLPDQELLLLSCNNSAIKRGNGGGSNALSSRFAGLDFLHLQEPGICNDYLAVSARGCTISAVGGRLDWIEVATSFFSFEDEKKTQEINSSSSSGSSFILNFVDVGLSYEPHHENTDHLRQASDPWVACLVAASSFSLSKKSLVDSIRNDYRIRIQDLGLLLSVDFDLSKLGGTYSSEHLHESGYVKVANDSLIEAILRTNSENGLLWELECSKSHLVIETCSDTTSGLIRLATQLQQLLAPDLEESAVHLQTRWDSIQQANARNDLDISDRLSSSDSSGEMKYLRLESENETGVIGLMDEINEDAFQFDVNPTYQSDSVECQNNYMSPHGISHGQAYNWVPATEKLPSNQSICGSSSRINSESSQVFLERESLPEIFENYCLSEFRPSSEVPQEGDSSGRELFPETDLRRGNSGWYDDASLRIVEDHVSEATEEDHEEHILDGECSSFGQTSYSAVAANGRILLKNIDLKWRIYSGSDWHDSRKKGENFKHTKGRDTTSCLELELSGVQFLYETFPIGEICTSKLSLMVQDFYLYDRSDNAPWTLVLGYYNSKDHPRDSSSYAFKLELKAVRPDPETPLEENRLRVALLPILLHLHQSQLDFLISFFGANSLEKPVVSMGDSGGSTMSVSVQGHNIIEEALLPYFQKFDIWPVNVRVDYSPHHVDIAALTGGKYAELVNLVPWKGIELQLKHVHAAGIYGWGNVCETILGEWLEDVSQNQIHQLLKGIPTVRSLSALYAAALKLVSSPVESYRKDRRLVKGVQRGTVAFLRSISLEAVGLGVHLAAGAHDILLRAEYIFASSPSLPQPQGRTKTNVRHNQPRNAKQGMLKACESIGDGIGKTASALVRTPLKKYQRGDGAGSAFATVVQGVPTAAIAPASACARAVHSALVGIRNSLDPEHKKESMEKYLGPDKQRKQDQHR

T1: ATG18A, Arabidopsis (Arabidopsis) (UniProt Q93VB2)
T1 sequence: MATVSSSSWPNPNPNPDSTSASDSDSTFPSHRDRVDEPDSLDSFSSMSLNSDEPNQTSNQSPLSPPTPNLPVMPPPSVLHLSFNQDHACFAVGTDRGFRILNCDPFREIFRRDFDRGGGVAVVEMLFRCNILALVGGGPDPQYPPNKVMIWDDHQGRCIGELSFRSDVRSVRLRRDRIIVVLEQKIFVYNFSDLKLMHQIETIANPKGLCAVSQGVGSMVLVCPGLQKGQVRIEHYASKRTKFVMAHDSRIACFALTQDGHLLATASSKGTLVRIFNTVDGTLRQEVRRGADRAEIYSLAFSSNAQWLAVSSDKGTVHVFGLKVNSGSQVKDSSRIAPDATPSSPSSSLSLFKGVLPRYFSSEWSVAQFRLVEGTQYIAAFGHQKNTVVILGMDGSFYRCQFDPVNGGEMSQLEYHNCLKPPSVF

T2: ATG18B, Arabidopsis (Arabidopsis) (UniProt Q8H1Q8)
T2 sequence: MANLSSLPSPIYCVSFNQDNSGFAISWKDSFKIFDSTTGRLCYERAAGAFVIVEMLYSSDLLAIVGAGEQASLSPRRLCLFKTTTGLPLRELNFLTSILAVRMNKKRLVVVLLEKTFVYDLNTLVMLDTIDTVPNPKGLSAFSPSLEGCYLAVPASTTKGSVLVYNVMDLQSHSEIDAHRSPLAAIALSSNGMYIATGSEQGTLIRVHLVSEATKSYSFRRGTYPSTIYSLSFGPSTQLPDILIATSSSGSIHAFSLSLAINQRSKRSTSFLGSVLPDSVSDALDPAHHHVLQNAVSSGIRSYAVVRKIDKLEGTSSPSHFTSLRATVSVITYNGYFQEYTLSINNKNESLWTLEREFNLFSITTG

T3: ATG18C, Arabidopsis (Arabidopsis) (UniProt Q8GYD7)
T3 sequence: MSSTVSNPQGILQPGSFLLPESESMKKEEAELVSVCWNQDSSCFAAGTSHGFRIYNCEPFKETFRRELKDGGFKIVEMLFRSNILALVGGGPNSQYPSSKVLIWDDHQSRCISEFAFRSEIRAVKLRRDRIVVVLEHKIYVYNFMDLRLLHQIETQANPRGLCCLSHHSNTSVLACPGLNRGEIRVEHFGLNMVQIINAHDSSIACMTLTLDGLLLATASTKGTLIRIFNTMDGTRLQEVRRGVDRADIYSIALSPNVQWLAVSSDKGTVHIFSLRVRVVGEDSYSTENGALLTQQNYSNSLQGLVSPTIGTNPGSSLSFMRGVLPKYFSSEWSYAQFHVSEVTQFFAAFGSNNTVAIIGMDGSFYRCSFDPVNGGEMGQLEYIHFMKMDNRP

T4: ATG18D, Arabidopsis (Arabidopsis) (UniProt Q0WPK3)
T4 sequence: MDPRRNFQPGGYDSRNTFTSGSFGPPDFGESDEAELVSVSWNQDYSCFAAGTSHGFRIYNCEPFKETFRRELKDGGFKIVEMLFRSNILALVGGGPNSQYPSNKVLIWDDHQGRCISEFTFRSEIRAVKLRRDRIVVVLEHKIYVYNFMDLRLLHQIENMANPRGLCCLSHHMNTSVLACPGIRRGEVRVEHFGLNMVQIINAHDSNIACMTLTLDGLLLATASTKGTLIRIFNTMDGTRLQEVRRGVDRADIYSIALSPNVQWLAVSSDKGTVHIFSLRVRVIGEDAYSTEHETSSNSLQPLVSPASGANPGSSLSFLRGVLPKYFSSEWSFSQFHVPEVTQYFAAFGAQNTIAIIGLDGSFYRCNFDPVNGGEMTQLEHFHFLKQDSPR

T5: ATG18E, Arabidopsis (Arabidopsis) (UniProt Q9FHK8)
T5 sequence: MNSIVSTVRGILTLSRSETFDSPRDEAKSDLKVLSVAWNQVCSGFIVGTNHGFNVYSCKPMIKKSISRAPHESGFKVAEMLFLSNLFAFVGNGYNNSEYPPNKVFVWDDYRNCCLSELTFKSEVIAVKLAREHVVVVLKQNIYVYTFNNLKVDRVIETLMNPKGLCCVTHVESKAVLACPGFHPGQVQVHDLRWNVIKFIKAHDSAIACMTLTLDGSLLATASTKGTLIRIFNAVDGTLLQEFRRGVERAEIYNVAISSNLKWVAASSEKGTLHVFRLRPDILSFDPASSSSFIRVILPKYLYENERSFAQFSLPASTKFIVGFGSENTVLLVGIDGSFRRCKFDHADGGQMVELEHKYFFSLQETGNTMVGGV

T6: ATG18F, Arabidopsis (Arabidopsis) (UniProt Q9FH32)
T6 sequence: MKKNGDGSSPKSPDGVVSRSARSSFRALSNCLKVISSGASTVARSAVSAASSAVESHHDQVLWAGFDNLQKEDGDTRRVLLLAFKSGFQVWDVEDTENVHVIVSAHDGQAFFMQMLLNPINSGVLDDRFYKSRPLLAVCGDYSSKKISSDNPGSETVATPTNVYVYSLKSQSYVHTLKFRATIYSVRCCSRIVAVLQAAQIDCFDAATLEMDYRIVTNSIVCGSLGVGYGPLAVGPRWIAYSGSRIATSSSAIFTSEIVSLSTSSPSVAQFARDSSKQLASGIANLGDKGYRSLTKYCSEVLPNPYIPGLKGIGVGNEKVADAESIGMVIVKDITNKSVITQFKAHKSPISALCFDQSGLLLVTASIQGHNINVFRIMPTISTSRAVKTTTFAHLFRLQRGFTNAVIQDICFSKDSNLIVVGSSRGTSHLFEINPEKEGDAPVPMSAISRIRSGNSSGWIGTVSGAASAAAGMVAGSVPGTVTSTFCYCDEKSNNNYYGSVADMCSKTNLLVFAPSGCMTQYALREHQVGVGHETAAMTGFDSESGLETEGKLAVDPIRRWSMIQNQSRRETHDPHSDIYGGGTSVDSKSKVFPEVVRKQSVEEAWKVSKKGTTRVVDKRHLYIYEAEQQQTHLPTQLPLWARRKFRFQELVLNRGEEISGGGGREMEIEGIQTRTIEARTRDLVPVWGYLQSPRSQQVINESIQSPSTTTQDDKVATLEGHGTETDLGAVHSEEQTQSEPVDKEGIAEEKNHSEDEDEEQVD

T7: ATG18G, Arabidopsis (Arabidopsis) (UniProt Q8GUL1)
T7 sequence: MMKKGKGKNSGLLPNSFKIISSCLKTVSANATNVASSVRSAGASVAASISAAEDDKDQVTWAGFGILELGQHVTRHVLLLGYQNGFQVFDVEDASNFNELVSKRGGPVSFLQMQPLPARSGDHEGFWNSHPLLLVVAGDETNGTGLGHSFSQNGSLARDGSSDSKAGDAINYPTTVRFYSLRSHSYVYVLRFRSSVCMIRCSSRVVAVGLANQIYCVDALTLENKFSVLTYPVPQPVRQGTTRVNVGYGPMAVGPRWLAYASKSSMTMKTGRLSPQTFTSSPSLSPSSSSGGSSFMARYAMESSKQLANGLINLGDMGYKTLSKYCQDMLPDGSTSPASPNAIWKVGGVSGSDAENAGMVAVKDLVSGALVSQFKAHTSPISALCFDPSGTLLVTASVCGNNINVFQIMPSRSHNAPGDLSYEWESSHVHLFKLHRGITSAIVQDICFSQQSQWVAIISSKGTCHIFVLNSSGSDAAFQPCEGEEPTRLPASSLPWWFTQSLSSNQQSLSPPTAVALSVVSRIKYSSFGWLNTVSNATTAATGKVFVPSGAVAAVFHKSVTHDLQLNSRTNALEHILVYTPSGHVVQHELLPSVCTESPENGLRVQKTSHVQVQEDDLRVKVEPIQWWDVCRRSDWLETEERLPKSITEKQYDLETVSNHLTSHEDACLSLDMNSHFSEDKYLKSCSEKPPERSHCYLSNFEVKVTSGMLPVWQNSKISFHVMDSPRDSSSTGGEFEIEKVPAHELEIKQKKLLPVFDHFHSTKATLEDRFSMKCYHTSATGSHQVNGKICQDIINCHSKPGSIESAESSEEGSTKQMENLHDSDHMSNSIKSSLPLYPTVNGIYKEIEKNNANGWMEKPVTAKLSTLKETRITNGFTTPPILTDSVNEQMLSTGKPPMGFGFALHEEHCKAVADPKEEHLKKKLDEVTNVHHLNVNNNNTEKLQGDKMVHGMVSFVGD

T8: ATG18H, Arabidopsis (Arabidopsis) (UniProt Q8H1Q5)
T8 sequence: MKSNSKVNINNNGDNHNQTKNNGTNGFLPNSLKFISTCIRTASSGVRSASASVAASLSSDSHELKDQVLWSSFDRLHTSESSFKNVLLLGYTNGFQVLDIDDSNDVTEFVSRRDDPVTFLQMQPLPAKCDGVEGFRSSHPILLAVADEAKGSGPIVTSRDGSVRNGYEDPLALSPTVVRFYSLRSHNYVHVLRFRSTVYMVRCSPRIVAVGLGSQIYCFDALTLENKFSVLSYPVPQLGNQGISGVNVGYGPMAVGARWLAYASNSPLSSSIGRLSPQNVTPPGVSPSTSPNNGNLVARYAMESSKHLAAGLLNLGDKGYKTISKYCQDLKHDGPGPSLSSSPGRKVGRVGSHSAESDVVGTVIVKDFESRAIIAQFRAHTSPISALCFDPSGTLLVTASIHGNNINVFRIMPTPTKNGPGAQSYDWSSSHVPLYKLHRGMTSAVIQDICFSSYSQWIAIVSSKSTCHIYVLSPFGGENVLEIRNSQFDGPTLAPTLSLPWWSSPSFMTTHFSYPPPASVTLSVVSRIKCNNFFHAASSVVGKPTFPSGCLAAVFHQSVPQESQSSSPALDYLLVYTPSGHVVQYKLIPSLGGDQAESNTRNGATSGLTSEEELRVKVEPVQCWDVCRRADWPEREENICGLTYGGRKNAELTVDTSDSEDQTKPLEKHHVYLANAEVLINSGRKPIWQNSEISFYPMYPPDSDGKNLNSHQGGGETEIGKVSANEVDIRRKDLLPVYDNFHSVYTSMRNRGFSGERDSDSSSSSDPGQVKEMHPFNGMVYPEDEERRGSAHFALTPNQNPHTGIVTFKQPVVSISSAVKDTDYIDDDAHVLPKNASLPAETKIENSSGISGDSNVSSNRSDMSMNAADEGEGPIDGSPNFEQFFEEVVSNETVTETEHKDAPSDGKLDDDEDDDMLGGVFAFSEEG


Experiments:
Assay in all cases: two-hybrid; Matchmaker GAL4 system (Clontech), pGADT7 (AD) and pGBKT7 (BD) fusions cotransformed into yeast AH109; positive clones selected on SD medium lacking Trp, Leu and His with 1 mM 3-AT
[1] = molecular target: T1, ATG18A, Arabidopsis (Arabidopsis)
[2] = molecular target: T2, ATG18B, Arabidopsis (Arabidopsis)
[3] = molecular target: T3, ATG18C, Arabidopsis (Arabidopsis)
[4] = molecular target: T4, ATG18D, Arabidopsis (Arabidopsis)
[5] = molecular target: T5, ATG18E, Arabidopsis (Arabidopsis)
[6] = molecular target: T6, ATG18F, Arabidopsis (Arabidopsis)
[7] = molecular target: T7, ATG18G, Arabidopsis (Arabidopsis)
[8] = molecular target: T8, ATG18H, Arabidopsis (Arabidopsis)
[9] = molecular target: Autophagy-related 2 (ATG2), Arabidopsis (Arabidopsis) (UniProt F8S296)

binding [1] | binding [2] | binding [3] | binding [4] | binding [5] | binding [6] | binding [7] | binding [8] | binding [9] | Molecule
binds | no binding | no binding | no binding | no binding | no binding | no binding | no binding | no binding | Autophagy-related 2 (ATG2), Arabidopsis (from UniProt F8S296 1-1892)
– | – | – | – | – | – | – | – | binds | ATG18A, Arabidopsis (protein, UniProt Q93VB2 1-425) MATVSSSSWPNPNPNPDSTSASDSDSTFPSHRDRVDEPDSLDSFSSMSLNSDEPNQTSNQSPLSPPTPNLPVMPPPSVLHLSFNQDHACFAVGTDRGFRILNCDPFREIFRRDFDRGGGVAVVEMLFRCNILALVGGGPDPQYPPNKVMIWDDHQGRCIGELSFRSDVRSVRLRRDRIIVVLEQKIFVYNFSDLKLMHQIETIANPKGLCAVSQGVGSMVLVCPGLQKGQVRIEHYASKRTKFVMAHDSRIACFALTQDGHLLATASSKGTLVRIFNTVDGTLRQEVRRGADRAEIYSLAFSSNAQWLAVSSDKGTVHVFGLKVNSGSQVKDSSRIAPDATPSSPSSSLSLFKGVLPRYFSSEWSVAQFRLVEGTQYIAAFGHQKNTVVILGMDGSFYRCQFDPVNGGEMSQLEYHNCLKPPSVF
